Some of the results follow. The full chains were built here from the parent and the listed change. Inactive controls read about 0.05.
B1: TEV protease; numbered along this chain (parent)
chain: MGESLFKGPRDYNPISSSICHLTNESDGHTTSLYGIGFGPFIITNKHLFRRNNGTLVVQSLHGVFKVKDTTTLQQHLVDGRDMIIIRMPKDFPPFPQKLKFREPQREERICLVTTNFQTKSMSSMVSDTSCTFPSGDGIFWKHWIQTKDGQCGSPLVSTRDGFIVGIHSASNFTNTNNYFTSVPKNFMELLTNQEAQQWVSGWRLNADSVLWGGHKVFMVKPEEPFQPVKEATQL

Variants of: B1
Assay: raw area under fraction-flipped curve 0-4 h after induction (AUC4h, not background-subtracted), DNA-recorder readout of cleavage of the substrate (dimensionless); higher = more cleavage of the substrate by the protease variant
Conditions: temperature: 34 °C; time window: 0-4 h after rhamnose induction
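Also: Bxb1 expression induced with 0.2% (w/v) L-rhamnose at OD600 near 0.5, cultures sampled hourly, flipped fraction per protease–substrate barcode pair counted by paired-end Illumina sequencing.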

Row | Variant | area with substrate ENLDFQS | area with substrate ENLFFQS | area with substrate ENLHFQS | area with substrate ENLKFQS | area with substrate ENLLFQS | area with substrate ENLMFQS | area with substrate ENLRFQS | area with substrate ENLSFQS | area with substrate ENLVFQS | area with substrate ENLWFQS | area with substrate ENLNFQS | area with substrate ENLIFQS | area with substrate ENLPFQS | area with substrate ENLQFQS | area with substrate ENLEFQS | area with substrate ENLGFQS | area with substrate ENLTFQS
1 | V67Q | 0.068 | 0.0692 | 0.0634 | 0.0684 | 0.0595 | 0.0644 | 0.055 | 0.0457 | 0.0754 | 0.0622 |  |  |  |  |  |  | 
2 | T70M | 0.103 | 0.0803 | 0.0646 | 0.0695 |  | 0.0796 |  |  | 0.0636 |  | 0.0692 |  |  |  |  |  | 
3 | T71I | 0.0585 | 0.0711 |  | 0.0827 |  | 0.0637 |  | 0.0928 | 0.0735 | 0.0571 | 0.0694 | 0.0597 | 0.0587 | 0.0601 |  |  | 
4 | Q75H | 0.0712 | 0.0751 | 0.0468 | 0.0593 |  | 0.0609 | 0.0992 | 0.0602 |  | 0.067 | 0.0597 | 0.071 | 0.0585 | 0.0599 | 0.0677 |  | 
5 | V78K | 0.0583 | 0.0705 |  | 0.072 | 0.0539 |  | 0.0588 | 0.0454 |  |  | 0.0573 | 0.0552 | 0.0523 |  | 0.0485 |  | 
6 | G80Y | 0.0597 | 0.0774 |  | 0.0757 |  | 0.0681 | 0.0726 | 0.0563 |  | 0.0567 | 0.0709 |  | 0.0596 | 0.0813 |  | 0.0536 | 
7 | M83A | 0.0657 | 0.0662 | 0.0548 | 0.0832 | 0.0683 |  | 0.0626 |  | 0.0662 |  | 0.0643 |  | 0.0654 |  |  | 0.0748 | 0.0718
8 | M83P | 0.0594 | 0.0454 | 0.0611 |  | 0.0571 |  |  | 0.0504 | 0.0469 | 0.0572 | 0.054 | 0.054 | 0.0647 | 0.0481 | 0.0527 |  | 
9 | I84Q | 0.0651 |  |  | 0.0708 |  |  | 0.066 |  | 0.0652 |  | 0.0718 | 0.0719 | 0.0636 |  | 0.0547 |  | 
10 | R87K | 0.0633 |  |  |  |  |  | 0.113 | 0.0697 |  |  |  |  |  | 0.0656 |  |  | 
11 | R87P | 0.0626 | 0.0589 | 0.0549 |  | 0.0513 | 0.0425 |  | 0.0626 | 0.0586 |  |  | 0.057 | 0.0674 |  |  | 0.0735 | 
12 | R87W | 0.0589 | 0.0597 | 0.0665 |  |  |  | 0.0618 |  |  | 0.071 | 0.0887 | 0.0817 |  | 0.0607 |  | 0.0672 | 
13 | M88S | 0.0563 |  | 0.158 | 0.0621 | 0.0927 |  | 0.0729 |  | 0.0737 | 0.0735 | 0.0599 | 0.0848 | 0.0554 |  | 0.0455 |  | 
14 | D91L | 0.0568 | 0.0745 |  | 0.063 | 0.0588 |  |  |  |  |  | 0.0771 |  |  |  |  |  | 
15 | D91V | 0.0647 | 0.0874 |  | 0.0839 |  |  | 0.0668 |  | 0.0613 |  | 0.0618 | 0.0682 | 0.0577 | 0.0682 |  |  | 
16 | F92P | 0.0648 | 0.0575 |  | 0.0562 | 0.0552 | 0.0523 | 0.0583 | 0.0621 |  | 0.0541 | 0.0688 |  | 0.0531 | 0.0409 | 0.0622 |  | 
17 | P93N | 0.0626 | 0.0913 | 0.0636 |  |  |  |  |  |  |  | 0.0567 | 0.087 | 0.0629 |  |  |  | 
18 | P93Q | 0.0728 | 0.0771 |  | 0.0659 |  |  |  | 0.0815 |  |  |  | 0.0843 | 0.0605 |  | 0.0671 |  | 

Row | Variant | area with substrate ENLDFQS | area with substrate ENLFFQS | area with substrate ENLHFQS | area with substrate ENLKFQS | area with substrate ENLLFQS | area with substrate ENLMFQS | area with substrate ENLRFQS | area with substrate ENLSFQS | area with substrate ENLVFQS | area with substrate ENLWFQS | area with substrate ENLNFQS | area with substrate ENLIFQS | area with substrate ENLPFQS | area with substrate ENLQFQS | area with substrate ENLEFQS | area with substrate ENLGFQS | area with substrate ENLTFQS
19 | P96G | 0.0761 | 0.08 | 0.0686 | 0.0572 |  |  |  | 0.0744 |  |  | 0.0635 |  | 0.0708 |  |  |  | 
20 | Q97F | 0.0508 |  | 0.0694 | 0.0708 |  |  | 0.0838 | 0.0743 |  |  |  |  |  |  |  | 0.0454 | 
21 | Q97K | 0.0611 |  | 0.0519 |  |  |  |  |  |  |  |  |  |  |  |  |  | 
22 | F101Y | 0.0653 |  |  |  |  |  | 0.0702 | 0.0368 | 0.0589 |  | 0.0707 |  |  |  |  |  | 
23 | T115P | 0.0566 |  |  | 0.0646 |  |  | 0.0741 |  |  |  | 0.0712 | 0.0935 |  | 0.0892 |  |  | 
24 | F117W | 0.0607 |  | 0.0493 | 0.0667 |  | 0.0679 |  | 0.0553 |  |  |  |  | 0.0687 |  | 0.0666 | 0.0623 | 
25 | T119P | 0.0621 | 0.0946 | 0.0674 | 0.091 |  |  | 0.0747 |  |  | 0.0799 |  | 0.0464 | 0.0672 | 0.0718 | 0.0647 |  | 
26 | S121C | 0.0555 | 0.112 | 0.0723 | 0.0881 |  |  | 0.0635 | 0.0649 |  | 0.0817 | 0.0682 | 0.0914 | 0.0755 | 0.084 | 0.0633 |  | 0.0674
27 | M122S | 0.0575 | 0.085 | 0.064 |  |  | 0.074 | 0.0704 |  |  | 0.0602 | 0.0637 |  |  | 0.0799 |  |  | 
28 | V126S | 0.0588 | 0.0751 | 0.0757 | 0.0731 |  | 0.061 | 0.0839 | 0.0622 | 0.0874 | 0.105 | 0.0631 | 0.0913 | 0.0646 | 0.0648 |  | 0.072 | 
29 | T129E | 0.0577 | 0.0883 |  | 0.0754 |  |  | 0.0629 | 0.0491 |  |  |  |  |  |  |  | 0.0569 | 
30 | S130L | 0.0585 | 0.0698 | 0.0548 | 0.0685 | 0.0652 |  | 0.0567 | 0.0608 |  |  | 0.0499 |  | 0.0419 | 0.0803 |  |  | 
31 | T132L | 0.0594 | 0.0797 | 0.0609 | 0.0619 |  |  | 0.0654 | 0.0848 | 0.0572 | 0.0527 | 0.0832 | 0.0755 | 0.0599 | 0.0666 | 0.0743 | 0.0605 | 
32 | T132W | 0.087 | 0.0618 | 0.0559 | 0.0656 | 0.071 |  | 0.0471 | 0.0488 |  | 0.0548 | 0.0607 |  | 0.0496 | 0.0702 | 0.0606 |  | 
33 | F133T | 0.0767 | 0.0897 | 0.0875 |  |  |  | 0.0803 |  |  | 0.08 | 0.052 |  | 0.0669 | 0.0786 | 0.068 |  | 
34 | S135Q | 0.0634 | 0.0512 | 0.057 | 0.0642 | 0.0605 | 0.0489 | 0.0505 | 0.0657 |  | 0.0504 | 0.0657 | 0.0847 | 0.0557 |  | 0.0515 |  | 
35 | W141T | 0.0569 |  | 0.0563 |  | 0.057 |  |  |  | 0.0695 | 0.0567 | 0.0593 |  | 0.0603 | 0.0541 | 0.0617 | 0.0746 | 0.0632
36 | K142V | 0.0358 | 0.0778 | 0.0733 |  |  | 0.0832 | 0.0684 |  |  | 0.112 | 0.0598 | 0.0747 | 0.0618 | 0.121 | 0.0556 | 0.0683 | 
